Measured values reported in the supplement of paper PMC9446081.
The whole screen tested about 39,000 compounds, of which about 220 (0.56%) showed activity. This is one part of the list.

system: Escherichia coli K-12 BW25113; assay: relative growth (OD600 normalised to plate interquartile mean) (fraction); higher = less growth inhibition, active = 0.2 or less; conditions: 50 µM; LB; incubation time: overnight (16-24 h)
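Also: static incubation at 37 °C against the wild-type strain, values averaged over two biological replicates.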

Row | SMILES | relative growth
1 | CO[C@@H]1CN(C)C(=O)c2cc(NS(=O)(=O)CC(F)(F)F)ccc2OC[C@H](C)N(C(=O)c2ccc3c(c2)OCO3)C[C@H]1C | inactive: 0.963
2 | C[C@@H]1CN([C@@H](C)CO)C(=O)c2cc(C#CCN(C)C)cnc2O[C@@H]1CN(C)C(=O)Nc1ccccc1F | inactive: 1
3 | C[C@@H]1CN([C@H](C)CO)C(=O)Cc2cc(NC(=O)CCN3CCOCC3)ccc2O[C@H]1CN(C)Cc1ccc(C(=O)Nc2ccccc2N)cc1 | inactive: 1.02
4 | Cc1noc(C)c1NC(=O)N[C@@H]1CC[C@H](CC(=O)NCCCN(C)C)O[C@@H]1CO | inactive: 0.996
5 | COc1ccc(CCNC(=O)[C@@]2(Cc3ccccc3I)c3ccccc3C(=O)N(C3CCCCC3)[C@H]2c2ccc(CO)cc2)cc1 | inactive: 1
6 | COc1cc2c(cc1O)[C@H](c1ccc(CN3CCCC3)cc1)N(Cc1cc3c(cc1Br)OCO3)CC2 | inactive: 1.01
7 | C[C@@H]1CN([C@H](C)CO)C(=O)c2cccc(NC(=O)c3ccncc3)c2O[C@@H]1CN(C)Cc1ccncc1 | inactive: 0.989
8 | O=C(C[C@@H]1CC[C@@H]2[C@H](COC[C@H](O)CN2C(=O)c2ccc(F)cc2)O1)NCCCN1CCOCC1 | inactive: 0.969
9 | C[C@@H]1CCCCO[C@@H](CN(C)CC2CCCCC2)[C@@H](C)CN([C@H](C)CO)C(=O)c2cc(NC(=O)CCC(F)(F)F)ccc2O1 | inactive: 0.966
10 | C[C@H]1CN([C@@H](C)CO)C(=O)c2cccc(NC(=O)C3CCOCC3)c2O[C@@H]1CN(C)S(=O)(=O)c1ccc(F)cc1 | inactive: 0.97
11 | CN1C(=O)c2cc(NC(=O)c3cccs3)ccc2OC[C@H]2O[C@H](CC(=O)NCC(F)(F)F)CC[C@H]21 | inactive: 1
12 | C[C@@H]1CCCCO[C@H](CN(C)Cc2ccccc2)[C@H](C)CN([C@@H](C)CO)C(=O)c2cc(NC(=O)c3ccccc3)ccc2O1 | inactive: 0.964
13 | CN(C)CCOc1ccc(C#N)cn1 | inactive: 1
14 | CCOc1cc(OCC)cc(C(=O)N[C@@H](Cc2ccc(-n3cc(CCC(=O)NO)nn3)cc2)C(=O)OC)c1 | inactive: 1
15 | O=C(C[C@H]1CC[C@H]2[C@@H](COC[C@H](O)CN2S(=O)(=O)c2ccccc2)O1)NCCN1CCCCC1 | inactive: 1
16 | CC1(C)C[C@@](C)(c2ccccc2)c2cc(SC#N)ccc2N1 | inactive: 1.02
17 | C[C@@H]1CCCCO[C@@H](CN(C)C(=O)C2CCCCC2)[C@@H](C)CN([C@@H](C)CO)C(=O)c2cc(NC(=O)CCC(F)(F)F)ccc2O1 | inactive: 0.991
18 | CCCNC(=O)COc1cccc([C@@H](CCc2ccc(OC)c(OC)c2)OC(=O)[C@@H]2CCCCN2C(=O)C(=O)C(C)(C)CC)c1 | inactive: 1.04
19 | C[C@@H]1CCCCO[C@@H](CN(C)C(=O)Nc2ccc3c(c2)OCO3)[C@H](C)CN([C@@H](C)CO)C(=O)c2cc(NS(=O)(=O)c3cccs3)ccc2O1 | inactive: 1.01
20 | CCCCCCOc1ccccc1C(N)=O | inactive: 0.945

Row | SMILES | relative growth
21 | C[C@H](CO)N1C[C@H](C)[C@H](CN(C)S(=O)(=O)c2cccs2)Oc2ccc(NC(=O)c3ccncc3)cc2CC1=O | inactive: 0.983
22 | CC(C)c1onc(-c2c(Cl)cccc2Cl)c1COc1ccc(C=Cc2cccc(C(=O)O)c2)c(Cl)c1 | inactive: 0.895
23 | C[C@H](CO)N1C[C@H](C)[C@@H](CN(C)S(=O)(=O)c2cn(C)cn2)Oc2ccc(NC(=O)c3ccncc3)cc2CC1=O | inactive: 0.95
24 | C[C@@H](N)CCc1ccc(Br)cc1 | inactive: 0.911
25 | O=C(C[C@H]1CC[C@H]2[C@@H](COC[C@H](O)CN2S(=O)(=O)c2ccc(F)cc2)O1)N[C@@H]1CCN(Cc2ccccc2)C1 | inactive: 1.01
26 | COc1ccc(CN(C)C[C@@H]2OCCCC[C@H](C)Oc3ccc(NC(=O)Nc4ccc(F)cc4)cc3C(=O)N([C@H](C)CO)C[C@H]2C)cc1 | inactive: 0.982
27 | Cc1ccc(S(=O)(=O)Nc2ccc3c(c2)C(=O)N([C@H](C)CO)C[C@H](C)[C@@H](CN(C)Cc2ccc(Cl)c(Cl)c2)O3)cc1 | inactive: 0.97
28 | C[C@H](CO)N1C[C@H](C)[C@H](CN(C)S(C)(=O)=O)Oc2ccc(NC(=O)Nc3ccc(C(F)(F)F)cc3)cc2C1=O | inactive: 0.937
29 | Cc1noc(C)c1S(=O)(=O)N(C)C[C@H]1OCCCC[C@H](C)Oc2ccc(NS(C)(=O)=O)cc2C(=O)N([C@H](C)CO)C[C@@H]1C | inactive: 0.844
30 | O=C(C[C@@H]1CC[C@@H]2[C@H](COC[C@@H](O)CN2CC2CCOCC2)O1)N1CCOCC1 | inactive: 0.995
31 | C[C@@H]1CN([C@H](C)CO)C(=O)c2cccc(NC(=O)c3ccc(-c4nccs4)cc3)c2O[C@H]1CN(C)S(C)(=O)=O | inactive: 0.936
32 | Cc1noc(C)c1NC(=O)N(C)C[C@H]1OCCCC[C@@H](C)Oc2ccc(NS(=O)(=O)c3ccc(F)cc3)cc2C(=O)N([C@@H](C)CO)C[C@@H]1C | inactive: 1.05
33 | C[C@@H]1CN([C@@H](C)CO)S(=O)(=O)c2ccc(C#CC(C)(C)O)cc2O[C@H]1CN(C)C(=O)C1CCCCC1 | inactive: 0.973
34 | O=C(C[C@H]1C=C[C@H](NS(=O)(=O)c2ccccc2F)[C@H](CO)O1)NCCCN1CCOCC1 | inactive: 1
35 | CNC(=O)CN1CCO[C@H]2CN(C(=O)C(C)C)C[C@@H]21 | inactive: 0.995
36 | CN1C(=O)c2cc(NC(=O)C3CCCC3)ccc2OC[C@@H]2O[C@@H](CC(=O)NCCc3ccncc3)CC[C@@H]21 | inactive: 1.01
37 | COc1ccc(NC(=O)Nc2ccc3c(c2)[C@@H]2C[C@@H](CC(=O)NCc4ccccn4)O[C@H](CO)[C@@H]2O3)cc1 | inactive: 1.01
38 | COc1ccc(S(=O)(=O)N(C)C[C@@H]2Oc3c(NC(=O)C4CC4)cccc3C(=O)N([C@H](C)CO)C[C@H]2C)cc1 | inactive: 0.997
39 | COC[C@H]1C[C@@H](c2nc(-c3ccc4c(c3)COc3cc5c(ccc6[nH]c([C@@H]7CC[C@H](C)N7C(=O)[C@@H](NC(=O)OC)C(C)C)nc65)cc3-4)c[nH]2)N(C(=O)[C@H](NC(=O)OC)c2ccccc2)C1 | inactive: 1.06
40 | COc1ccccc1CN1C(=O)c2ccccc2[C@@]2(Cc3ccccc3N(CCCN(C)C)C2=O)[C@@H]1c1ccc(CO)cc1 | inactive: 1.01

Row | SMILES | relative growth
41 | COc1ccc(S(=O)(=O)N(C)C[C@@H]2Oc3c(NC(=O)C4CCOCC4)cccc3C(=O)N([C@@H](C)CO)C[C@@H]2C)cc1 | inactive: 0.983
42 | C[C@H](NC(=O)C[C@H]1CC[C@H](NC(=O)CN2CCOCC2)[C@@H](CO)O1)c1ccccc1 | inactive: 1
43 | C[C@@H]1CN([C@H](C)CO)C(=O)c2cccc(NS(=O)(=O)c3ccc(Cl)cc3)c2O[C@H]1CN(C)C(=O)Nc1ccc(C(F)(F)F)cc1 | inactive: 1
44 | C[C@@H]1CN([C@@H](C)CO)C(=O)Cc2cc(NS(=O)(=O)c3cn(C)cn3)ccc2O[C@H]1CN(C)S(=O)(=O)c1ccc(Cl)cc1 | inactive: 1.01
45 | CN1CCN(C(=O)C[C@@H]2C[C@@H]3c4cc(NC(=O)c5ccc6c(c5)OCO6)ccc4O[C@@H]3[C@H](CO)O2)CC1 | inactive: 1.02
46 | C[C@@H]1CN([C@H](C)CO)C(=O)c2cccc(NC(=O)C3CC3)c2O[C@@H]1CN(C)Cc1ccc(-c2ccccc2)cc1 | inactive: 0.921
47 | C[C@H](CO)N1C[C@H](C)[C@H](CN(C)C(=O)c2ccncc2)Oc2ncc(C#CC3CCCCC3)cc2C1=O | inactive: 0.993
48 | COc1ccc(S(=O)(=O)Nc2ccc3c(c2)C(=O)N([C@H](C)CO)C[C@H](C)[C@@H](CN(C)CC2CC2)O3)cc1 | inactive: 1.03
49 | COc1ccc(NC(=O)Nc2ccc3c(c2)C(=O)N([C@H](C)CO)C[C@H](C)[C@@H](CN(C)S(=O)(=O)c2cccs2)OCCCC[C@@H](C)O3)cc1 | inactive: 1.04
50 | C[C@@H]1CN([C@H](C)CO)C(=O)CCCn2cc(nn2)CO[C@@H]1CN(C)S(=O)(=O)c1ccc(Cl)cc1 | inactive: 1.03
51 | CCS(=O)(=O)Nc1ccc2c(c1)C(=O)N(C)C[C@@H](OC)[C@H](C)CN(C(=O)c1ccc3c(c1)OCO3)[C@H](C)CO2 | inactive: 1.02
52 | COc1ccc(CCNC(=O)[C@@]2(Cc3ccccc3I)c3ccccc3C(=O)N(Cc3ccccc3)[C@H]2c2ccc(COC(=O)NCCCCCC(=O)NO)cc2)cc1 | inactive: 0.977
53 | COCC(=O)N(C)C[C@@H]1Oc2cc(-c3ccc(C#N)cc3)ccc2S(=O)(=O)N([C@@H](C)CO)C[C@@H]1C | inactive: 0.952
54 | COc1ccc(NC(=O)Nc2ccc3c(c2)C(=O)N([C@@H](C)CO)C[C@H](C)[C@@H](CN(C)C(=O)Cc2ccccc2)OCCCC[C@H](C)O3)cc1 | inactive: 1.02
55 | COc1ccc(S(=O)(=O)Nc2ccc3c(c2)C(=O)N([C@@H](C)CO)C[C@H](C)[C@H](CN(C)Cc2ccccc2)OCCCC[C@H](C)O3)cc1 | inactive: 1
56 | CC(=O)O.N=C(N)NN=Cc1c(Cl)cccc1Cl | inactive: 0.885
57 | C[C@@H]1CN([C@@H](C)CO)C(=O)Cc2cc(NC(=O)Cc3cn(C)c4ccccc34)ccc2O[C@H]1CN(C)Cc1ccc(Oc2ccccc2)cc1 | inactive: 1.01
58 | O=C(C[C@H]1C[C@@H]2c3cc(NS(=O)(=O)c4ccc(F)cc4)ccc3O[C@@H]2[C@H](CO)O1)NCc1cccc(F)c1 | inactive: 1.04
59 | Cl.Clc1ccccc1CN1CCc2sccc2C1 | inactive: 0.983
60 | Cc1ccc(C(=O)c2ccc(Oc3ccccc3)cc2)cc1 | inactive: 1.02
